The record followed here is ChEMBL document CHEMBL1201862, “PubChem BioAssay data set” (2004).

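Protocol summary: plate cells (96-well), add compound at 5 concentrations, incubate 48 h, interpolate endpoints linearly. At the GI50, growth is halved.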 Calls of active or inactive are those of the source. No stated cut-off is given here; in the data, active = GI50 up to about 1.1 µM and inactive = higher.

For the assay, the system named is NCI-H322M. Description: NCI tumour cell line growth inhibition, 48 h.
On to `CCn1cc(C(=O)O)c(=O)c2cc(F)c(N3CCN(CN4C(=O)/C(=N\c5ncc(Cc6cc(OC)c(OC)c(OC)c6)c(N)n5)c5cc(Cl)ccc54)CC3)cc21`, for which the GI50 is inactive: > 100 µM.

In the case of `CNc1ncnc(Sc2nc(N)nc3[nH]cnc23)c1[N+](=O)[O-]`, the GI50 was inactive: 5.9 µM. Regarding `NCCSc1nc(-c2ccccc2)c(-c2ccccc2)o1`, the GI50 is inactive: > 100 µM.

`O=[N+]([O-])c1cc(-c2ccc([As](=O)(O)O)cc2)ccc1[As](=O)(O)O`: the GI50 was inactive: > 100 µM. As for `O=C(Nc1ccccc1)n1cc(-c2ccccn2)c(N2CCOCC2)n1`, the GI50 is inactive: 15.4 µM.

Consider `Oc1ccc2c(O)cc(-c3ccccc3)nc2c1`, for which the GI50 is inactive: 31.9 µM.

Consider `O=C(NNC(=O)c1ccccc1SSc1ccccc1C(=O)NNC(=O)c1ccccc1S)c1ccccc1S`, for which the GI50 was inactive: 32.5 µM. `Cc1ccc(SC2=C(N(C)C)C(=O)c3ccccc3C2=O)cc1`: the GI50 is inactive: 16 µM.

As for `C(=NCCN1CCOCC1)=NC1CCCCC1`, the GI50 was inactive: > 100 µM. As to `Cc1n[nH]c(=O)n1-n1cccc1`, the GI50 was inactive: > 100 µM. With `Cc1ccc(/C=C/C(=O)C(C)(C)CN2CCCCC2)cc1`, the GI50 is inactive: 5.2 µM. `Clc1nc(Cl)c(Cc2ccccc2)c(Cl)n1`: the GI50 is inactive: 18.3 µM. In the case of `CC1=NN(c2nc(N)nc(C(C)Cl)n2)C(C)(C)C1` (stereo unspecified), the GI50 is inactive: > 100 µM.

`O/N=C1/C2CC3CC1(c1ccccc1)CC(/C3=N/O)/C2=N\O` (stereo unspecified): the GI50 was inactive: > 100 µM. Regarding `Nc1nc(Cl)c(N)c(NCC2(CO)CCC2)n1`, the GI50 is inactive: > 100 µM. Turning to `CCC1=NC(C(F)(F)F)(C(F)(F)F)N=C(N2CCOCC2)O1`, the GI50 was inactive: > 100 µM. `Oc1ccc(-c2c3ccccc3c(-c3ccc(OCCBr)cc3)c3ccccc23)cc1`: the GI50 was inactive: 22.9 µM.

With `Cc1ccc(S(=O)(=O)N/N=C/c2oc(-c3cccc([N+](=O)[O-])c3)c(-c3cccc([N+](=O)[O-])c3)c2[N+](=O)[O-])cc1`, the GI50 was inactive: > 100 µM.

For `CCCCCCCCCCCCCC1CCC(CC)N1` (stereo unspecified), the GI50 is inactive: 8.38 µM.

On to `Cn1c2ccccc2c2cc(-c3ccccc3)c3c(c21)C(=O)c1ccccc1C3=O`, for which the GI50 was inactive: 22.3 µM. `CNC1=Nc2ccccc2C(=O)N2CSCC12` (stereo unspecified): the GI50 is inactive: > 100 µM. Regarding `N#Cc1ccc(OCCSCCCCCCCCCCSCCOc2ccc(C#N)cc2)cc1`, the GI50 is inactive: > 100 µM. On to `Cn1c(C2CC(C)(C)c3c2c2ccccc2n3C)cc2ccccc21` (stereo unspecified), for which the GI50 was inactive: > 304 µM.

As to `CC#COP(=O)(OCC)OCC`, the GI50 is inactive: > 100 µM. As to `C(=C\c1ccc(-c2cn3cc(/C=C/C=N/NC4=NCCN4)ccc3n2)cc1)/C=N/NC1=NCCN1`, the GI50 is inactive: 1.95 µM. For `COc1ccccc1Nc1nc(N)nc(N)c1N=O`, the GI50 is inactive: > 100 µM. `CN(CCO)CC(=O)CC(O)(C(F)(F)F)C(F)(F)F`: the GI50 is inactive: 37.2 µM. Consider `C/C(=N\NC(=O)CC(=O)Nc1ccc(C)cc1)c1cc2ccccc2oc1=O`, for which the GI50 is inactive: > 100 µM.

As to `O=C(NC(Cc1ccc(I)cc1)C(=O)O)c1ccc(Br)cc1` (stereo unspecified), the GI50 was inactive: > 100 µM.

For `CC1=C(C)C(=O)O[C@@H]([C@](C)(O)[C@]2(O)CC[C@@]3(O)[C@@H]4C[C@H](O)[C@]5(O)[C@@H](O)C=CC(=O)[C@]5(C)[C@H]4CC[C@]23C)C1`, the GI50 was inactive: > 100 µM.

In the case of `COC(=O)N/N=C(\C)CC(=O)Nc1ccc(Cl)cc1`, the GI50 is inactive: > 100 µM. Turning to `CC(=O)C1=C(C)N2C(=NC3=C(CCc4ccccc43)C2c2ccc(F)cc2)S1` (stereo unspecified), the GI50 was inactive: > 100 µM. Turning to `C[C@]12CCC3[C@@H](CC[C@@H]4c5nonc5CC[C@]34C)C1CC[C@@H]2O` (stereo partly specified), the GI50 was inactive: 69 µM. On to `CC1=C(C(=O)Nc2cc(F)c(F)cc2F)C(c2ccc3c(c2)OCO3)C(C(=O)Nc2cc(F)c(F)cc2F)=C(C)N1`, for which the GI50 is inactive: 26.3 µM. As for `O=C(N/N=C/c1ccc(Cl)cc1)c1ccccc1Nc1ccccc1C(=O)N/N=C/c1ccc(Cl)cc1`, the GI50 is inactive: > 100 µM. With `CC(=O)N1[C@H](C(=O)O)CS[C@H]1c1ccc(F)cc1`, the GI50 was inactive: > 100 µM.

For `Clc1cc(Br)c2c3c(c(Br)cc(Cl)c13)C(Br)=C2Br`, the GI50 is inactive: 81.3 µM. Turning to `COc1cc(/C=C2\NC(=S)C3Cc4c(OC)c(C)c(OC)c(OC)c4C2N3C)c(OC)c(C)c1OC` (stereo unspecified), the GI50 was inactive: 76 µM. With `O=C(CCc1nnc2s/c(=C\c3ccc([N+](=O)[O-])cc3)c(=O)n12)Nc1ccc(Cl)c(Cl)c1` the figure was inactive: 64.9 µM.

Turning to `COc1ccc2c(ccc3c(COC(=O)NC(C)C)c(COC(=O)NC(C)C)n(C)c32)c1`, the GI50 is inactive: 20.4 µM. With `CCC1(C)NC(c2cnccn2)=NN1c1ccc(Cl)cc1` (stereo unspecified) the figure was inactive: 74 µM. In the case of `O=C(Nc1ccc(Cl)cc1)c1cc(S(=O)(=O)N2CCNNC2=O)c(S)cc1Cl`, the GI50 is inactive: > 100 µM.

In the case of `O=C1N[C@@H]2O[C@H](CNC(=O)c3cc(Br)c[nH]3)C[C@]2(O)N1.O=C1N[C@H]2O[C@H](CNC(=O)c3cc(Br)c[nH]3)C[C@@]2(O)N1`, the GI50 is inactive: > 100 µM. As to `NC(=O)SCCC(N)C(=O)O` (stereo unspecified), the GI50 is inactive: > 100 µM.

With `COCc1c(CO)cnc(C)c1OC1OC(CO)C(O)C(O)C1O` (stereo unspecified), the GI50 is inactive: > 100 µM. To `Cn1ccnc1Cn1cc(-c2cccc(-c3cn[nH]c3)c2)cn1` belongs inactive: > 100 µM; to `Cn1c2ccccc2n2c3ccccc3c(=S)c(C#N)c12`, inactive: > 100 µM.

For the molecule `CCOC(=O)C1(Cc2ccccc2)Cc2ccccc2C1=O` (stereo unspecified), the GI50 was inactive: 39.3 µM. As for `C/C=C1\CN2CCc3c([nH]c4ccccc34)C2CC1C(=O)OC` (stereo unspecified), the GI50 is inactive: > 322 µM. Regarding `NC(CCSC(F)F)C(=O)O` (stereo unspecified), the GI50 was inactive: > 100 µM. In the case of `COC(=O)[C@@H]1C[C@@H](O)CN1C(=O)c1ccc([N+](=O)[O-])cc1[N+](=O)[O-]`, the GI50 was inactive: > 100 µM.

Consider `O=c1ccn([C@@H]2C[C@@H]2CO)c(=O)[nH]1`, for which the GI50 was inactive: > 100 µM. With `CSCCC(C(=O)O)N(C)C` (stereo unspecified), the GI50 was inactive: > 100 µM. With `O=c1c2ccccc2nc(N/N=C/c2ccc([N+](=O)[O-])cc2)n1-c1ccccc1` the figure was inactive: 31.1 µM.

In the case of `COC(=O)CCC(=O)c1ccc2c(c1)CC1(C2)Cc2ccc(C(=O)CCC(=O)OC)cc2C1`, the GI50 is inactive: > 100 µM.

`CCOC12OC3=C(CC1CC1=C(CCC1=O)O2)C(=O)CC3` (stereo unspecified): the GI50 is inactive: > 100 µM.

For the molecule `ClC1=C(Cl)C(Cl)(Cl)c2c3c(c4c(c21)C(Cl)(Cl)C(Cl)=C4Cl)C(Cl)(Cl)C(Cl)=C3Cl`, the GI50 is inactive: > 100 µM. Take `c1ccc(C2=C(c3ccccc3)Sc3nnc(CCCCCCCCc4nnc5n4NC(c4ccccc4)=C(c4ccccc4)S5)n3N2)cc1`: the GI50 was inactive: 43.7 µM. On to `CCOC(=O)C(C#N)C1=CC(=O)C(=O)c2ccc(OC)cc21` (stereo unspecified), for which the GI50 was inactive: 25.6 µM.

In the case of `Cc1cc(O)nc(NNC(C#N)c2ccc(N(C)C)cc2)n1` (stereo unspecified), the GI50 was inactive: > 100 µM. Consider `N#C/C(=C\c1ccc2ccccc2c1)C(=O)c1ccccc1`, for which the GI50 was inactive: > 100 µM. Take `CNS(=O)(=O)NNS(=O)(=O)c1ccc(C)cc1`: the GI50 is inactive: > 100 µM.

`CC(C)=CCC/C(C)=C/CC/C(C)=C/CC(CO)N(C)CC/C=C(\C)CCC=C(C)C` (stereo unspecified): the GI50 is inactive: 5.78 µM. To `CN1C(=O)C(O)CC1c1cccc(F)c1` (stereo unspecified) belongs inactive: > 100 µM; to `O=C1c2ccccc2C(=O)c2sc(Nc3ccccc3C(F)(F)F)nc21`, inactive: 13.2 µM; to `CC(C)CC(=O)NC(Nc1ccc(S(=O)(=O)Nc2ncccn2)cc1)(C(F)(F)F)C(F)(F)F`, inactive: > 100 µM. As to `OC1OCC(COc2cc(Cl)c(Cl)cc2Cl)OC1O` (stereo unspecified), the GI50 is inactive: 65.5 µM. Regarding `CCN1C(=O)C/C(=C\C(C)=O)Nc2ccccc21`, the GI50 is inactive: > 100 µM. `COc1cc(O)c(C(=O)/C=C/c2ccc(OC)c(OCc3ccccc3)c2)c(OC)c1`: the GI50 is inactive: 4.43 µM. As for `CCc1cccc(C)c1NC(=O)CC(=O)NNC(N)=S`, the GI50 is inactive: > 100 µM. With `COC(=O)C1C2CC3C1C3C2C(=O)OC` (stereo unspecified) the figure was inactive: > 100 µM. As to `CCCN1CC=CCC1`, the GI50 was inactive: > 100 µM. Turning to `N#CC(C/C=C/c1ccccc1)NNC(=O)c1c(Cl)c(Cl)c(Cl)c(Cl)c1-c1nc2cc(C(=O)c3ccccc3)ccc2[nH]1` (stereo unspecified), the GI50 was inactive: 27.2 µM. In the case of `COc1cccc2c1C(=O)c1c(O)c3c(c(O)c1C2=O)CC(O)(C(=O)CO)CC3OC1CC(N)C(I)C(C)O1` (stereo unspecified), the GI50 is inactive: 15 µM. For the molecule `Cc1ncc(COP(=O)(O)O)c(/C=C2\SC(=S)NC2=O)c1O`, the GI50 is inactive: > 100 µM. To `C/C(=C\CC[C@]1(C)OC(C)(C)OC1CC/C(C)=C/CO[Si](c1ccccc1)(c1ccccc1)C(C)(C)C)CC/C=C/CO[Si](C)(C)C(C)(C)C` (stereo partly specified) belongs inactive: > 100 µM; to `CC(=O)OC(C)(C)[C@H]1O[C@]23O[C@]1(C)C[C@@H](C)[C@@H]2[C@@]1(C)CC[C@@]24C[C@@]25CC[C@H](O[C@@H]2OC[C@@H](O)[C@H](O)[C@H]2O)C(C)(C)[C@@H]5CC[C@H]4[C@]1(C)[C@H]3O`, inactive: 7.6 µM.

Regarding `COc1cc2c(cc1OCCCOc1cc3c(cc1OC)C(=O)N1CCC[C@H]1C(=O)N3)N=C[C@@H]1CCCN1C2=O`, the GI50 was inactive: 22.5 µM.

Take `CCCCCCNC(=O)c1cc(CCc2cc(O)ccc2O)ccc1O`: the GI50 is inactive: 9.84 µM. With `CN(C)CCOc1ccc2[nH]c(C(=O)N3CC(CCl)c4c3cc([N+](=O)[O-])c3ccccc43)cc2c1` (stereo unspecified) the figure was inactive: 1.81 µM; with `Cc1ccc2[nH]c3c(C)c4c(c(C)c3c2c1)CN(C)C=C4`, inactive: 2.54 µM.
